# Reference: PubChem BioAssay (Tox21)
# Values joined by “and” are separate entries in the source; they are usually repeats but may differ in a detail not shown here. Equal values may be shown once. This list was built around the results that the source calls inconclusive (neither active nor inactive); the mix of calls is not that of the screen. For some of these results: Where the call is inconclusive, the potency comes from a doubtful curve fit. More than one record can exist for a structure, and the calls need not agree. Active and inactive are the calls of the source. Unless noted, calls come from the whole dose curve; as a rule, active = well fitted curve in the direction sought with a large enough effect in the repeat runs; inconclusive = weak or mixed curves; inactive = no such curve, though single readings can be large; an effect the other way counts as inactive or inconclusive.
# Assays:
# [1] = qHTS assay to identify small molecule antagonists of the TGF-beta/Smad signaling pathway (AID 1346924; active = well fitted inhibition curve with a large enough effect in the signal ratio in the repeat runs, not every such curve was filed as active; inconclusive = weak or mixed curves; the % refers to the signal ratio); conditions: SBE-bla HEK293T, TGF-beta/Smad reporter, beta-lactamase ratio
# Method in brief: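 SBE-bla HEK 293T cells were plated overnight, then received compound in DMSO plus TGF-beta1 (added as a 0.25 ng/mL solution) and were incubated 5 h at 37 C. Beta-lactamase reporter activity was read after 2 h at room temperature with LiveBLAzer B/G FRET substrate (ex 405, em 460/530 nm).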
# [2] = target: Thyrotropin-releasing hormone receptor (Homo sapiens) (UniProt P34981); experiment: qHTS assay to identify small molecule agonists of the thyrotropin-releasing hormone receptor (TRHR) signaling pathway (AID 1346891; calls by dose curve)
# Chain of UniProt P34981 (P34981 whole entry, looked up): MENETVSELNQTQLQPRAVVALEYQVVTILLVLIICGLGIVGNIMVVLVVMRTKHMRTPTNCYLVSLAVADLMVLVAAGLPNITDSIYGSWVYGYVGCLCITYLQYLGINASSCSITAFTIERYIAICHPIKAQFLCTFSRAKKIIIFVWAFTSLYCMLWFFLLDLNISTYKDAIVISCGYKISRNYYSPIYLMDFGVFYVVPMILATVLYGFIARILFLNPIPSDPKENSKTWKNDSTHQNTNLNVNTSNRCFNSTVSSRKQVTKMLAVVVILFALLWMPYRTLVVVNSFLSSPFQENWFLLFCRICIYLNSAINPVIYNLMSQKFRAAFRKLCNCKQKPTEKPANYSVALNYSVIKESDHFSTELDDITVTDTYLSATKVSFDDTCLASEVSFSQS
# Method in brief: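 HEK293/TRHR cells, 1500 per well, 18 h 37 °C; Ca dye 2 h 37 °C; pin-tool compound addition (agonist mode); kinetic fluorescence 3 min, 1 s reads; 15 concentrations, triplicate.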
# [3] = Caspase-3/7 induction in CHO-K1 cells by small molecules, qHTS cell viability counter screen (AID 1346979); note: nearly all actives have a fitted effect of over 35% in size
# Method in brief: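 CHO-K1 wt, 1,500 cells/well; 5hr pre-incubation 37C/5% CO2; compound pin transfer (DMSO); 16hr exposure; CellTiter-Fluor added, 1hr, fluorescence read.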
# [4] = target: Cytochrome P450 2D6 (Homo sapiens) (UniProt P10635); experiment: Cytochrome P450 Family 2 Subfamily D Member 6 (CYP2D6) small molecule antagonists: luciferase reporter qHTS assay (AID 1671196); note: nearly all actives have a fitted effect of over 50% in size
# Chain of UniProt P10635 (P10635 whole entry, looked up): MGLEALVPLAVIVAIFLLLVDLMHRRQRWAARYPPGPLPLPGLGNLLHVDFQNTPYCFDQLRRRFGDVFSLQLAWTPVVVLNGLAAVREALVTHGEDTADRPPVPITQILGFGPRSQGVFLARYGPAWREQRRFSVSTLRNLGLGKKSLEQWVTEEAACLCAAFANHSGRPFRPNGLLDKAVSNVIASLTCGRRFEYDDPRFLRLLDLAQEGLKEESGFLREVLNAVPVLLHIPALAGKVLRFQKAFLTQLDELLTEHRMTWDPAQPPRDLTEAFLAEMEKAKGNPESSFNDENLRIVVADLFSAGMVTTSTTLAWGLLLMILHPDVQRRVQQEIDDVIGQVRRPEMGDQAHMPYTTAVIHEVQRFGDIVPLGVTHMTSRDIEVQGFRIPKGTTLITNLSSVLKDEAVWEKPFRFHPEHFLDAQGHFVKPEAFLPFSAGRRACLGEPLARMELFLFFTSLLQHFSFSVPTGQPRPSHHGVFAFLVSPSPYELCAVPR
# Method in brief: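 Cell-free P450-Glo system: CYP2D6 with proluciferin substrate was pre-incubated with compound for 10 min, then reacted with NADPH regeneration for 1 h at room temperature. Luciferin product was detected after 20 min, and data were reported as relative luminescence units.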
# [5] = target: Cytochrome P450 2C19 (Homo sapiens) (UniProt P33261); experiment: Cytochrome P450 Family 2 Subfamily C Member 19 (CYP2C19) small molecule antagonists: luciferase reporter qHTS assay (AID 1671197); note: nearly all actives have a fitted effect of over 65% in size
# Chain of UniProt P33261 (P33261 whole entry, looked up): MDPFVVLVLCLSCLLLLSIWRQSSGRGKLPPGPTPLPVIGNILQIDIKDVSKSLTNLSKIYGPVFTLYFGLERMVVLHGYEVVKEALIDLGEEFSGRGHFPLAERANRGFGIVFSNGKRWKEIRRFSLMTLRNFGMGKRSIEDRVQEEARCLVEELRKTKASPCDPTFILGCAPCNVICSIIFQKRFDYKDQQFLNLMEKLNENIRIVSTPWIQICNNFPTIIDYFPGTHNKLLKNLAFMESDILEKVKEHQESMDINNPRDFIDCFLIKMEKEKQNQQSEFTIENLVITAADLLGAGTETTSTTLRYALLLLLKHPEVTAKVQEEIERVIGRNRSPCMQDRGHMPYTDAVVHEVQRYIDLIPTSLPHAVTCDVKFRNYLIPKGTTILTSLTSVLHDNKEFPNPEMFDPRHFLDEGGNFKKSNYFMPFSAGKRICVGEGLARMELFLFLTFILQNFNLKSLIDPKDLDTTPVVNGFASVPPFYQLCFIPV
# Method in brief: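 Enzyme-substrate mix with proluciferin substrate (P450-Glo CYP2C19 system) preincubated with compounds 10 min at room temperature; NADPH regeneration solution added, 37C for 1 h; detection reagent stops reaction, luminescence read after 20 min. Ketoconazole positive control.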
# [6] = target: Cytochrome P450 2C9 (Homo sapiens) (UniProt P11712); experiment: Cytochrome P450 Family 2 Subfamily C Member 9 (CYP2C9) small molecule antagonists: luciferase reporter qHTS assay (AID 1671198); note: nearly all actives have a fitted effect of over 50% in size
# Chain of UniProt P11712 (P11712 whole entry, looked up): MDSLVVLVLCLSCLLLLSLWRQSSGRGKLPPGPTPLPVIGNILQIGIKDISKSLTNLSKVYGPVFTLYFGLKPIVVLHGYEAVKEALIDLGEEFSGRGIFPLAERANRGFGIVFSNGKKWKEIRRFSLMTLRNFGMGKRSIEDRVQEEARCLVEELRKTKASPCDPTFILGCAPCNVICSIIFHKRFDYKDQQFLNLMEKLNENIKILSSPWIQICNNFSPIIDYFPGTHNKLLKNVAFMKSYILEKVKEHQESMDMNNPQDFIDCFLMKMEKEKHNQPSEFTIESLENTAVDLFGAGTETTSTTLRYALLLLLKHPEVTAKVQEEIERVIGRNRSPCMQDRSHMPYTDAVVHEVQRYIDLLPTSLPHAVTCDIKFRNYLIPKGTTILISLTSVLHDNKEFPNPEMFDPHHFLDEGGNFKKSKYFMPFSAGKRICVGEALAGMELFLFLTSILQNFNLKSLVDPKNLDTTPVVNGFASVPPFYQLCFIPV
# Method in brief: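 CYP2C9 activity was measured with a P450-Glo proluciferin substrate. Enzyme–substrate mix was held with compound for 10 min at room temperature, then NADPH regeneration solution was added for 1 h at 37C. Luciferin product was read as luminescence.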
# [7] = Human pregnane X receptor (PXR) small molecule agonists, qHTS cell viability counter screen (AID 1346977); note: nearly all actives have a fitted effect of over 50% in size
# Method in brief: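 Fluorescence read-out (CellTiter-Fluor) of viability in PXR-Luc HepG2 cells, multiplexed with the luciferase agonist read. Compounds in DMSO added after 5hr plating; 24hr total exposure at 37C, 5% CO2.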
# [8] = Caspase-3/7 induction in HepG2 cells by small molecules, qHTS assay (AID 1346978); note: nearly all actives have a fitted effect of over 15% in size
# Method in brief: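 Wild-type HepG2 cells (2,000/well) were settled 5 h at 37 C, 5% CO2, then exposed to compounds in DMSO for 17 h. Caspase-3/7 activity was read by luminescence 30 min after adding Caspase-Glo 3/7 reagent at room temperature.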
# [9] = Caspase-3/7 induction in CHO-K1 cells by small molecules, qHTS assay (AID 1346980); note: nearly all actives have a fitted effect of over 15% in size
# Method in brief: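 Wild-type cells were seeded at 1,500 per well and settled 5 hr at 37 C, 5% CO2, then exposed to DMSO-dissolved compounds for 17 hr. Caspase-Glo 3/7 reagent was added, and luminescence was read after 30min at room temperature.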
# [10] = target: Voltage-gated inwardly rectifying potassium channel KCNH2 (Homo sapiens) (UniProt Q12809); experiment: Human Ether-a-go-go-Related Gene (hERG) channel small molecule antagonists: fluorescence cell-based qHTS assay (AID 1671200); note: nearly all actives have a fitted effect of over 50% in size
# Chain of UniProt Q12809 (Q12809 whole entry, looked up): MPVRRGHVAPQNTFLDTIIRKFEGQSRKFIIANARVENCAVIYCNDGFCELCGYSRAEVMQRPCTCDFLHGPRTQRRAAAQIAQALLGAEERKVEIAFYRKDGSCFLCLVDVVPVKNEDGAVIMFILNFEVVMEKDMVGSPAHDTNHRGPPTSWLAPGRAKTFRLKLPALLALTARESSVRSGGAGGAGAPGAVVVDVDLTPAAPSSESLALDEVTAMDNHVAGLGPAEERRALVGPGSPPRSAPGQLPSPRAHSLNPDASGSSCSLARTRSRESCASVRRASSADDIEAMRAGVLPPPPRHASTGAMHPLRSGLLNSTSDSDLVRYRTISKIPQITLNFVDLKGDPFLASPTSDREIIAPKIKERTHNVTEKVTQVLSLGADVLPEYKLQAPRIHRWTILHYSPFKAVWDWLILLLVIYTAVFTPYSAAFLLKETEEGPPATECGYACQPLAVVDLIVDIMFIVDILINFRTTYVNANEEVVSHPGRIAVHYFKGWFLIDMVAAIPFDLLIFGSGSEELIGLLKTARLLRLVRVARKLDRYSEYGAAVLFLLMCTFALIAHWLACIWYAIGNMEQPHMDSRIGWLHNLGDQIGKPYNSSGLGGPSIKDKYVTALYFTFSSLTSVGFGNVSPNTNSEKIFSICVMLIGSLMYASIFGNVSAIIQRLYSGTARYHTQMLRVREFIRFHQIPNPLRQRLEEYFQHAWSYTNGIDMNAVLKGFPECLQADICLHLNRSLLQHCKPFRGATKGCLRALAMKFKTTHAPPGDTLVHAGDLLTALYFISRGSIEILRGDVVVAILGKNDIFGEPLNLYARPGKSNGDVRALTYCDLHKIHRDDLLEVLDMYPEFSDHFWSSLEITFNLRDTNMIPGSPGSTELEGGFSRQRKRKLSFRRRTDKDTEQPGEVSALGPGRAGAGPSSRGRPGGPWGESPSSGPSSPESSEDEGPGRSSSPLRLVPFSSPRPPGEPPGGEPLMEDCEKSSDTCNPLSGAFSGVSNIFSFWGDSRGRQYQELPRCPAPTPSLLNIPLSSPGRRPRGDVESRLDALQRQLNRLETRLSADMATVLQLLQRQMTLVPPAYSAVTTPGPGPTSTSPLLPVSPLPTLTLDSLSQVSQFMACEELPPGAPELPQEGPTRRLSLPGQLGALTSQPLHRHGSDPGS
# Method in brief: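 Read-out: thallium influx as a surrogate for potassium, tracked as fluorescence (480 nm ex/540 nm em) every second for 2 min after Stimulus Buffer addition in dye-loaded hERG-U2OS cells.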
# [11] = target: Cytochrome P450 1A2 (Homo sapiens) (UniProt P05177); experiment: Cytochrome P450 Family 1 Subfamily A Member 2 (CYP1A2) small molecule antagonists: luciferase reporter qHTS assay (AID 1671199); note: nearly all actives have a fitted effect of over 50% in size
# Chain of UniProt P05177 (P05177 whole entry, looked up): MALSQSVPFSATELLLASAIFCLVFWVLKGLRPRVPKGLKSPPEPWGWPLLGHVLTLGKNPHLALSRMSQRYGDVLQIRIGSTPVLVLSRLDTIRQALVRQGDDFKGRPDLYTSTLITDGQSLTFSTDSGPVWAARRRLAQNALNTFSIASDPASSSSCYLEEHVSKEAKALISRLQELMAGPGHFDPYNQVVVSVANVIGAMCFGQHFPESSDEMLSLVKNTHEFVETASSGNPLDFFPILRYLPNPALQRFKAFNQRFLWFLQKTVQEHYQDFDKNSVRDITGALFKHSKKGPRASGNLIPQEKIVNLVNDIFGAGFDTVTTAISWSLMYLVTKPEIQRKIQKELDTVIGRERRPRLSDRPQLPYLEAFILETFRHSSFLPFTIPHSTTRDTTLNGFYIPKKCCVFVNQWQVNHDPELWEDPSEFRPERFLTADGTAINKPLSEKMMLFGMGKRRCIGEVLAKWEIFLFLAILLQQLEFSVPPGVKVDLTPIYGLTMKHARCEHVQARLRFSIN
# Method in brief: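 P450-Glo CYP1A2 enzyme–proluciferin substrate mix with compound 10 min at room temperature, then NADPH regeneration 1 h at room temperature. Luciferin detection reagent added, luminescence read after 20 min; furafylline positive control.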
# [12] = target: Nuclear receptor subfamily 1 group I member 2 (Homo sapiens) (UniProt O75469); experiment: Human pregnane X receptor (PXR) small molecule agonists, qHTS assay (AID 1346982); note: nearly all actives have a fitted effect of over 35% in size
# Chain of UniProt O75469 (O75469 whole entry, looked up): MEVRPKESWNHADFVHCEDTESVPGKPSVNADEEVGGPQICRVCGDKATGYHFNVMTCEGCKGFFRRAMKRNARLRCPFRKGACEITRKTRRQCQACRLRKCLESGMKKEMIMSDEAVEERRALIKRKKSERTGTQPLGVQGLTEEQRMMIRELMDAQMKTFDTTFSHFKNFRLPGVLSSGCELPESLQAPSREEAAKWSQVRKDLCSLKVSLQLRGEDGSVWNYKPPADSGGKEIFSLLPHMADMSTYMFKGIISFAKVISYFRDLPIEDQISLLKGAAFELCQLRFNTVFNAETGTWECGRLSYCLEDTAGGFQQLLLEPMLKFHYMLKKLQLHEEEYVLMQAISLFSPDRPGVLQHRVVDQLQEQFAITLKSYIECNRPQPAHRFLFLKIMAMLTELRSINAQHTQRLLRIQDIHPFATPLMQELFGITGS
# Method in brief: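 PXR-Luc HepG2 reporter cells (CYP3A4-driven luciferase) in 5% charcoal-stripped FBS medium, plated 5 h before compound addition, then treated 24 h at 37C. Luciferase read by ONE-Glo luminescence after 30 min at room temperature.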
# [13] = Caspase-3/7 induction in HepG2 cells by small molecules, qHTS cell viability counter screen (AID 1346981); note: nearly all actives have a fitted effect of over 30% in size
# Method in brief: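 Wild-type HepG2 cells, 2,000/well, settled 5 hr at 37 C, 5% CO2 before compound addition. Viability read by CellTiter-Fluor fluorescence, reagent added after 16 hr compound exposure, then 1 hr at 37C, in the same wells as the caspase read.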
# [14] = activity, negative = inhibition: at 76.8 µM (top of the series) unless noted
# Potency is the fitted concentration of half-maximal effect; tags give direction and shape of the fitted curve or compound fluorescence and quenching.
smiles,measurement,setting,value
CCCCCCOCCO,"activity, negative = inhibition",[1]; [14],inconclusive: -0.751%
O=C(/C=C/c1ccccc1)NCCO,Potency,[2],"inconclusive: 19 µM [activator, single point]"
same,Potency,[3],"inconclusive: 33.5 µM [rising, single point]"
same,Potency,[4],"inconclusive: 27.5 µM [inhibitor, partial curve, poor fit]"
same,Potency,[5],active: 15.5 µM
same,Potency,[6],active: 13.8 µM
Oc1ccc(C2(c3ccc(O)c(C4CCCCC4)c3)CCCCC2)cc1C1CCCCC1,Potency,[1]; [14],"inconclusive: 54.9 µM [cytotoxic, single point]"
same,Potency,[7],active: 19.3 µM
same,Potency,[8],active: 24.3 µM
same,Potency,[9],active: 13.7 µM
same,Potency,[4],"inconclusive: 31.7 µM [inhibitor, partial curve, poor fit]"
same,Potency,[5],active: 8.94 µM
Cc1cccc(Nc2ccccc2C(=O)O)c1C,Potency,[1]; [14],"inconclusive: 21.3 µM [fluorescent, partial curve, poor fit]"
same,"activity, negative = inhibition",[1]; [14],inconclusive: 9.91%
same,Potency,[7],inactive
same,Potency,[6],active: 31.7 µM and active: 30.9 µM
same,Potency,[10],"inconclusive: 535 nM [inhibitor, single point]"
Cc1cccc2c1ccc1ccccc12,Potency,[2],"inconclusive: 43.6 µM [activator, single point]"
same,Potency,[6],"inconclusive: 35.6 µM [inhibitor, partial curve, poor fit]"
same,Potency,[11],active: 6.33 µM
CCCCSCCCC,"activity, negative = inhibition",[1]; [14],inconclusive: -0.913%
CC(=O)OCc1ccco1,"activity, negative = inhibition",[1]; [14],inconclusive: -13.5%
same,Potency,[7],"inconclusive: 70.8 µM [cytotoxic, single point]"
same,Potency,[8],active: 60.8 µM
same,Potency,[6],"inconclusive: 70.6 µM [inhibitor, partial curve]"
CO/N=C(\C(=O)O)c1csc(NC(=O)CCl)n1,"activity, negative = inhibition",[1]; [14],inconclusive: -7.71% [at 35.3 µM]
CCCCCCCCCCCC(=O)OC[C@@H](O)[C@H]1OC[C@H](OCCO)[C@H]1OCCO,Potency,[2],inactive
same,Potency,[12],"inconclusive: 23.7 µM [activator, partial curve]"
same,Potency,[6],"inconclusive: 11 µM [inhibitor, full curve]"
O=C(c1ccccc1)c1ccc(Cl)cc1,Potency,[2],inactive
same,Potency,[6],active: 15.9 µM
C=CC(=O)OCC[N+](C)(C)C,Potency,[2],active: 1.56 µM
same,Potency,[12],inactive
same,Potency,[5],inactive
COc1ccc(C(=O)Nc2ccccc2)cc1[N+](=O)[O-],Potency,[2],inactive
same,Potency,[4],active: 40.2 µM
same,Potency,[11],active: 5.68 µM
CN1CCN(c2c(F)cc3c(=O)c(C(=O)O)cn(CCF)c3c2F)CC1,"activity, negative = inhibition",[1]; [14],inconclusive: -0.121% [at 35.3 µM]
CCCc1ccc(O)c(OC)c1,"activity, negative = inhibition",[1]; [14],inconclusive: -9.94%
same,Potency,[7],inactive
CCCCNC(=O)NCCCC,"activity, negative = inhibition",[1]; [14],inconclusive: -4.15%
same,Potency,[7],inactive
same,Potency,[3],"inconclusive: 68.6 µM [cytotoxic, single point]"
same,Potency,[9],"inconclusive: 68.6 µM [activator, single point]"
same,Potency,[4],inactive
same,Potency,[6],"inconclusive: 39.9 µM [inhibitor, partial curve, poor fit]"
C=CCSSCCC,Potency,[2],inactive
same,Potency,[7],inactive
same,Potency,[6],inactive
Clc1cccc(-c2cc(Cl)cc(Cl)c2)c1,"activity, negative = inhibition",[1]; [14],inconclusive: -11.1%
CC/C=C(\C)C=O,"activity, negative = inhibition",[1]; [14],inconclusive: 0.179%
Cc1ccc(C=O)cc1,"activity, negative = inhibition",[1]; [14],inconclusive: 37.3% [at 35.3 µM]
CC(C)(CCl)c1ccccc1,"activity, negative = inhibition",[1]; [14],inconclusive: -18.5%
CCOC(=O)COc1ccc2c(c1)CC(NCC(O)c1cccc(Cl)c1)CC2 (configuration not stated),Potency,[2],"inconclusive: 24.8 µM [activator, partial curve]"
same,Potency,[7],"inconclusive: 61.6 µM [cytotoxic, single point]"
same,Potency,[3],"inconclusive: 69.1 µM [cytotoxic, single point]"
COC(C)(C)CCO,"activity, negative = inhibition",[1]; [14],inconclusive: -2.66%
CC(C)OC(=O)CCC(=O)OC(C)C,"activity, negative = inhibition",[1]; [14],inconclusive: -3.88%
CC(C)c1ccc2c(C(C)C)cc(C(C)C)c(S(=O)(=O)O)c2c1,"activity, negative = inhibition",[1]; [14],inconclusive: 3.59%
COc1ccc(CN(CCN(C)C)c2ccccn2)cc1,"activity, negative = inhibition",[1]; at 35.3 µM (top of the series),inconclusive: 0.281%
same,"activity, negative = inhibition",[1]; at 76.8 µM (top of the series),inconclusive: -16.4%
same,Potency,[7],"inconclusive: 53.9 µM [cytotoxic, partial curve] and inconclusive: 50.2 µM [cytotoxic, partial curve]"
same,Potency,[13],"inconclusive: 67.9 µM [cytotoxic, partial curve, poor fit]"
same,Potency,[12],"inconclusive: 63.2 µM [activator, single point]"
same,Potency,[6],inactive
same,Potency,[11],"inconclusive: 62.7 µM [inhibitor] and inconclusive: 65.4 µM [inhibitor, partial curve]"
same,Potency,[10],"active: 21.7 µM and active: 20.1 µM and inconclusive: 19 µM [inhibitor, partial curve]"
